This passage reports binding results from article PMC5940305, “The Rab11-binding protein RELCH/KIAA1468 controls intracellular cholesterol distribution” (The Journal of Cell Biology, 2018).

Protein sequences, listed by entry. Tags and fused reporters are not part of them. Lines headed by an entry give the natural chain unless they say otherwise; changes in a name come on top.
UniProt P62491: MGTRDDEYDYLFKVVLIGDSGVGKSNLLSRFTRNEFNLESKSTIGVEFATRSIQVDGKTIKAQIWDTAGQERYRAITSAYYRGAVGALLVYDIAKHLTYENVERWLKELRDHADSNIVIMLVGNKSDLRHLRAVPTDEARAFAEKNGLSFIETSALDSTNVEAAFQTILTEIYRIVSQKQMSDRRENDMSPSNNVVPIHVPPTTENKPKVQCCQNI

These are yes or no findings as the source states them, for the method shown. For part of these data: In cells and extracts the contact can be indirect. Some results given as binding are weak or reduced against the parent protein; the word gives no strength. For part of these data: Tags and fused reporters may be left off the sequences shown.

For assay [1], the target named is T1, Flag-OSBP, full length (human) (UniProt P22059).
T1 sequence: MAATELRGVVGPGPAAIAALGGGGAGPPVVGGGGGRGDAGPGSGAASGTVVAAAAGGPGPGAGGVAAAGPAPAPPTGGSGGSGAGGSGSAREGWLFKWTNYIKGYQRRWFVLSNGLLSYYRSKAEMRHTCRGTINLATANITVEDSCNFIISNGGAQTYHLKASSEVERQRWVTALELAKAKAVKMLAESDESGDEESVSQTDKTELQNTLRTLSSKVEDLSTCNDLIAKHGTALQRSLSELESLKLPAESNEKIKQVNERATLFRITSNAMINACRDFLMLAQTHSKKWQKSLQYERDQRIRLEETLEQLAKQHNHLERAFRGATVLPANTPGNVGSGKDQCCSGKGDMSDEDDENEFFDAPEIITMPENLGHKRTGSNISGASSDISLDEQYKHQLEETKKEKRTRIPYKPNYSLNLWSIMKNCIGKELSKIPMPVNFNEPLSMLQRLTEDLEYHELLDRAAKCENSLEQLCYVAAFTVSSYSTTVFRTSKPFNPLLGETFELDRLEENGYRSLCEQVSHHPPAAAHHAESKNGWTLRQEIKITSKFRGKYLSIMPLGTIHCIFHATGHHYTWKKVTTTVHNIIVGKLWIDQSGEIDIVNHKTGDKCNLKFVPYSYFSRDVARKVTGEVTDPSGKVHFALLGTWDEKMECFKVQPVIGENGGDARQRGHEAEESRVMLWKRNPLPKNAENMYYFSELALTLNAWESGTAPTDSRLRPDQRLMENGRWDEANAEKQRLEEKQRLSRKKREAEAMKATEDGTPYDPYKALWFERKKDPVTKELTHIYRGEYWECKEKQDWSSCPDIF
The experiment in a line: co-IP; Flp-In–293 cells coexpressing Flag-, EGFP- and Myc-tagged Rab11a, RELCH and OSBP; anti-Flag M2 affinity gel, immunoblot with EGFP, Myc and Flag antibodies.

For assay [2], the target named is Gal4BD-Rab11a (Q70A), GTP-locked (not stated (human or mouse cDNA cloned)) (UniProt P62491). The experiment in a line: two-hybrid; S. cerevisiae PJ69-4A, Gal4AD (pACT2) RELCH constructs and Gal4BD (pFBT9) GTP-locked Rabs; growth on QDO plates, 3 d at 30°C.
The target in assay [3] is T1, Flag-OSBP, full length (human). The assay is described as follows: co-IP; HEK293FT cells coexpressing Flag-tagged OSBP and Myc-tagged RELCH constructs; anti-Flag M2 affinity gel, elution with Flag-peptide, immunoblot with Myc and Flag antibodies. (A western blot detects proteins with antibodies after separation by electrophoresis.)

As to “EGFP-tagged human Rab11a Q70A (from UniProt P62491 1-216)”, the binding result in assay [1] is listed as “binds”.

B1: Gal4AD-RELCH, full length (protein, UniProt Q148V7 1-1216)
chain: MAAMAPGGGGSGSGVNPFLSDSDEDDDEVAATEDRRAGLRLGAGVGLDPGSAGSLSPQDPMALGSSARPGLAVEMSAAPAALGGSGETPARLSIDAIAAQLLRDQYLLTALELHTELLESGRELPRLRDYFSNPGNFERQSGTPPGMGAPGIPGASIVGGAGGREPSTTSGGGQLNRAGSISTLDSLDFARYSDDGNRETDERVAVLEFELRKAKETIQALRANLTKAAEHEVPLQERKNYKSSPEIQEPIKPLEKRALNFLVNEFLLKNNYKLTSITFSDENDDQDFELWDDVGLNIPKPPDLLQLYRDFGNHQVTGKDLVDVASGVDEDELEALTPILGNVPPTLDTPLPIENTLLVQKLEDKISLLNNEKWSLMEQIRRLESEMDILKAEHFATPAVGDSVQPSLVWSSQKDSEDNRQSPAVNSSDQEKTKDVHLEIPDAADSFIPKENSSGSFPRKEREELPPSSVSNKTTLHFDQPNRKLSPAFHQALLSFCRMSADSRLGSEVSRIADSEKSVMLMLGRCLPHIVPNVLLAKREELIPLILCTACLHPEPKERDQLLHILFNLIKRPDDEQRQMILTGCVAFARHVGPTRVEAELLPQCWEQINHKYPERRLLVAESCGALAPYLPKEIRSSLVLSMLQQMLMEDKADLVREAVIKSLGIIMGYIDDPDKYQQGFELLLSALGDPSERVVSATHQVFLPAYAAWTTELGNLQSHLIPTLLNKIEKLLREGEHGLDEHKLHMYLSALQSLIPSLFALVLQNAPFSSKAKLHGEVPHIEVTRFPRPMSPLQDVSTIIGSREQLAVLLQLYDYQLEHEGTTGWESLLWVVNQLLPQLIEIVGKINVTSTACVHEFSRFFWRLCRTFGKIFTNTKVKPQFQEILRLSEENIDSSAGNGVLTKATVPIYATGVLTCYIQEEDRKLLVGFLEDVMTLLSLSHAPLDSLKASFVELGANPAYHELLLTVLWYGVVHTSALVRCTAARMFELLVKGVNETLVAQRVVPALITLSSDPEISVRIATIPAFGTIMETVIQRELLERVKMQLASFLEDPQYQDQHSLHTEVIRTFGRVGPNAEPRFRDEFVIPHLHKLALVNNLQIVDSKKLDIATHLFEAYSALSCCFISEDLMVNHFLPGLRCLRTDMEHLSPEHEVILSSMIKECEQKVENKTVQEPPGSMSIAASLVSEDTKTKFLNKMGQLTTSGAMLANVFQRKK
For B1, in assay [2], the binding result is given as “binds”.

B2: Myc-tagged RELCH 904–1,216 (domain or fragment, UniProt Q148V7 904-1216)
chain: KATVPIYATGVLTCYIQEEDRKLLVGFLEDVMTLLSLSHAPLDSLKASFVELGANPAYHELLLTVLWYGVVHTSALVRCTAARMFELLVKGVNETLVAQRVVPALITLSSDPEISVRIATIPAFGTIMETVIQRELLERVKMQLASFLEDPQYQDQHSLHTEVIRTFGRVGPNAEPRFRDEFVIPHLHKLALVNNLQIVDSKKLDIATHLFEAYSALSCCFISEDLMVNHFLPGLRCLRTDMEHLSPEHEVILSSMIKECEQKVENKTVQEPPGSMSIAASLVSEDTKTKFLNKMGQLTTSGAMLANVFQRKK
As to B2, in assay [3], the binding result was “binds”.

B3: Myc-tagged RELCH 1,143–1,216 (domain or fragment, UniProt Q148V7 1143-1216)
chain: TDMEHLSPEHEVILSSMIKECEQKVENKTVQEPPGSMSIAASLVSEDTKTKFLNKMGQLTTSGAMLANVFQRKK
On to B3, for which the binding entry in assay [3] was “no binding”.

B4: Myc-tagged RELCH 904–1,142 (domain or fragment, UniProt Q148V7 904-1142)
chain: KATVPIYATGVLTCYIQEEDRKLLVGFLEDVMTLLSLSHAPLDSLKASFVELGANPAYHELLLTVLWYGVVHTSALVRCTAARMFELLVKGVNETLVAQRVVPALITLSSDPEISVRIATIPAFGTIMETVIQRELLERVKMQLASFLEDPQYQDQHSLHTEVIRTFGRVGPNAEPRFRDEFVIPHLHKLALVNNLQIVDSKKLDIATHLFEAYSALSCCFISEDLMVNHFLPGLRCLR
As for B4, the binding result in assay [3] is “binds”.

B5: Myc-tagged RELCH 497–1,216 (domain or fragment, UniProt Q148V7 497-1216)
chain: CRMSADSRLGSEVSRIADSEKSVMLMLGRCLPHIVPNVLLAKREELIPLILCTACLHPEPKERDQLLHILFNLIKRPDDEQRQMILTGCVAFARHVGPTRVEAELLPQCWEQINHKYPERRLLVAESCGALAPYLPKEIRSSLVLSMLQQMLMEDKADLVREAVIKSLGIIMGYIDDPDKYQQGFELLLSALGDPSERVVSATHQVFLPAYAAWTTELGNLQSHLIPTLLNKIEKLLREGEHGLDEHKLHMYLSALQSLIPSLFALVLQNAPFSSKAKLHGEVPHIEVTRFPRPMSPLQDVSTIIGSREQLAVLLQLYDYQLEHEGTTGWESLLWVVNQLLPQLIEIVGKINVTSTACVHEFSRFFWRLCRTFGKIFTNTKVKPQFQEILRLSEENIDSSAGNGVLTKATVPIYATGVLTCYIQEEDRKLLVGFLEDVMTLLSLSHAPLDSLKASFVELGANPAYHELLLTVLWYGVVHTSALVRCTAARMFELLVKGVNETLVAQRVVPALITLSSDPEISVRIATIPAFGTIMETVIQRELLERVKMQLASFLEDPQYQDQHSLHTEVIRTFGRVGPNAEPRFRDEFVIPHLHKLALVNNLQIVDSKKLDIATHLFEAYSALSCCFISEDLMVNHFLPGLRCLRTDMEHLSPEHEVILSSMIKECEQKVENKTVQEPPGSMSIAASLVSEDTKTKFLNKMGQLTTSGAMLANVFQRKK
On to B5, for which the binding result in assay [3] is “binds”.

B6: RELCH Δ (497–779) (protein, UniProt Q148V7)
chain: MAAMAPGGGGSGSGVNPFLSDSDEDDDEVAATEDRRAGLRLGAGVGLDPGSAGSLSPQDPMALGSSARPGLAVEMSAAPAALGGSGETPARLSIDAIAAQLLRDQYLLTALELHTELLESGRELPRLRDYFSNPGNFERQSGTPPGMGAPGIPGASIVGGAGGREPSTTSGGGQLNRAGSISTLDSLDFARYSDDGNRETDERVAVLEFELRKAKETIQALRANLTKAAEHEVPLQERKNYKSSPEIQEPIKPLEKRALNFLVNEFLLKNNYKLTSITFSDENDDQDFELWDDVGLNIPKPPDLLQLYRDFGNHQVTGKDLVDVASGVDEDELEALTPILGNVPPTLDTPLPIENTLLVQKLEDKISLLNNEKWSLMEQIRRLESEMDILKAEHFATPAVGDSVQPSLVWSSQKDSEDNRQSPAVNSSDQEKTKDVHLEIPDAADSFIPKENSSGSFPRKEREELPPSSVSNKTTLHFDQPNRKLSPAFHQALLSFPHIEVTRFPRPMSPLQDVSTIIGSREQLAVLLQLYDYQLEHEGTTGWESLLWVVNQLLPQLIEIVGKINVTSTACVHEFSRFFWRLCRTFGKIFTNTKVKPQFQEILRLSEENIDSSAGNGVLTKATVPIYATGVLTCYIQEEDRKLLVGFLEDVMTLLSLSHAPLDSLKASFVELGANPAYHELLLTVLWYGVVHTSALVRCTAARMFELLVKGVNETLVAQRVVPALITLSSDPEISVRIATIPAFGTIMETVIQRELLERVKMQLASFLEDPQYQDQHSLHTEVIRTFGRVGPNAEPRFRDEFVIPHLHKLALVNNLQIVDSKKLDIATHLFEAYSALSCCFISEDLMVNHFLPGLRCLRTDMEHLSPEHEVILSSMIKECEQKVENKTVQEPPGSMSIAASLVSEDTKTKFLNKMGQLTTSGAMLANVFQRKK
With B6, the binding entry in assay [2] is on record as “no binding”.

B7: RELCH (1–496), two-hybrid construct (domain or fragment, UniProt Q148V7 1-496)
chain: MAAMAPGGGGSGSGVNPFLSDSDEDDDEVAATEDRRAGLRLGAGVGLDPGSAGSLSPQDPMALGSSARPGLAVEMSAAPAALGGSGETPARLSIDAIAAQLLRDQYLLTALELHTELLESGRELPRLRDYFSNPGNFERQSGTPPGMGAPGIPGASIVGGAGGREPSTTSGGGQLNRAGSISTLDSLDFARYSDDGNRETDERVAVLEFELRKAKETIQALRANLTKAAEHEVPLQERKNYKSSPEIQEPIKPLEKRALNFLVNEFLLKNNYKLTSITFSDENDDQDFELWDDVGLNIPKPPDLLQLYRDFGNHQVTGKDLVDVASGVDEDELEALTPILGNVPPTLDTPLPIENTLLVQKLEDKISLLNNEKWSLMEQIRRLESEMDILKAEHFATPAVGDSVQPSLVWSSQKDSEDNRQSPAVNSSDQEKTKDVHLEIPDAADSFIPKENSSGSFPRKEREELPPSSVSNKTTLHFDQPNRKLSPAFHQALLSF
Turning to B7, in assay [2], the binding entry was “no binding”.

B8: Myc-tagged RELCH 1–496 (domain or fragment, UniProt Q148V7 1-496)
chain: MAAMAPGGGGSGSGVNPFLSDSDEDDDEVAATEDRRAGLRLGAGVGLDPGSAGSLSPQDPMALGSSARPGLAVEMSAAPAALGGSGETPARLSIDAIAAQLLRDQYLLTALELHTELLESGRELPRLRDYFSNPGNFERQSGTPPGMGAPGIPGASIVGGAGGREPSTTSGGGQLNRAGSISTLDSLDFARYSDDGNRETDERVAVLEFELRKAKETIQALRANLTKAAEHEVPLQERKNYKSSPEIQEPIKPLEKRALNFLVNEFLLKNNYKLTSITFSDENDDQDFELWDDVGLNIPKPPDLLQLYRDFGNHQVTGKDLVDVASGVDEDELEALTPILGNVPPTLDTPLPIENTLLVQKLEDKISLLNNEKWSLMEQIRRLESEMDILKAEHFATPAVGDSVQPSLVWSSQKDSEDNRQSPAVNSSDQEKTKDVHLEIPDAADSFIPKENSSGSFPRKEREELPPSSVSNKTTLHFDQPNRKLSPAFHQALLSF
On to B8, for which the binding result in assay [3] was “no binding”.
